From patent publication US20250368738A1 (PHILOGEN S P A, published 2025)

Target: T1, murine CD28 on the surface of primary mouse T cells (mouse, UniProt P31041 20-218)
T1 construct: whole, on cells
Assay: flow cytometry on primary mouse T cells, 50 nM antibody

T1 sequence (P31041 20-218): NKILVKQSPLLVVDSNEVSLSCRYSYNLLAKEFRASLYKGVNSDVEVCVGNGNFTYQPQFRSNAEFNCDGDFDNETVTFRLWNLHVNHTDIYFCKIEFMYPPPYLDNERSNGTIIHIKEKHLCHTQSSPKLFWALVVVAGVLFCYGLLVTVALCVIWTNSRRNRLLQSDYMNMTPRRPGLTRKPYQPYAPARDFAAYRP

B1: AE2P IgG/anti-human CEA (scFv)2 bispecific antibody in IgG-(scFv)2 (2+2) format, wherein the IgG is in IgG4 format (format 2, FIG. 13) (bispecific antibody)
heavy: [omitted - about 100 residues]RYIAFDYWGQGTLVTVSSASTKGPSVFPLAPCSRSTSESTAALGCLVKDYFPEPVTVSWNSGALTSGVHTFPAVLQSSGLYSLSSVVTVPSSSLGTKTYTCNVDHKPSNTKVDKRV[omitted - human IgG4 Fc with S228P (EU numbers)]GSEVQLLESGGGLVQPGGSLRLSCAASGFTFSRTAMSWVRQAPGKGLEWVSAIDYDGGVTYYADSVKGRFTISRDNSKNTLYLQMNSLRAEDTAVYYCAKLTYARFDYWGQGTLVTVSSGGGGSGGGGSGGGGSEIVLTQSPGTLSLSPGERATLSCRASQSVSQNHLAWYQQKPGQAPRLLIYLASRRHTGIPDRFSGSGSGTDFTLTISRLEPEDFAVYYCQQSGRVPWTFGQGTKVEIK
light: DIQMTQSPSSLSASVGDRVTITCRASQSISSYLNWYQQKPGKAPKLLIYAASSLQSGVPSRFSGSGSGTDFTLTISSLQPEDFATYYCQQGGMPPDTFGQGTKVEIKRTVAAPSVFIFPPSDEQLKSGTASVVCLLNNFYPREAKVQWKVDNALQSGNSQESVTEQDSKDSTYSLSSTLTLSKADYEKHKVYACEVTHQGLSSPVTKSFNRGEC
notes: AE2P is in IgG4 format, the anti-human CEA antibody in scFv format on the heavy chains; also called anti-CD28 IgG/anti-human CEA (scFv)2 bispecific antibody
binding result: binds
